Results on 55 compounds are retold here after PMC4336329 (PLoS ONE, 2015).

The campaign covered roughly 310,000 compounds. About 2,200 (0.71%) showed an effect of 50% or more. Effects have a minus sign here. Some of the results follow.

The target in this assay is human ether-à-go-go-related gene (hERG) potassium channel (human, UniProt Q12809). The assay is described as follows: primary screen, population patch clamp on CHO cells stably expressing hERG.
human ether-à-go-go-related gene (hERG) potassium channel, sequence (Q12809 whole entry, looked up): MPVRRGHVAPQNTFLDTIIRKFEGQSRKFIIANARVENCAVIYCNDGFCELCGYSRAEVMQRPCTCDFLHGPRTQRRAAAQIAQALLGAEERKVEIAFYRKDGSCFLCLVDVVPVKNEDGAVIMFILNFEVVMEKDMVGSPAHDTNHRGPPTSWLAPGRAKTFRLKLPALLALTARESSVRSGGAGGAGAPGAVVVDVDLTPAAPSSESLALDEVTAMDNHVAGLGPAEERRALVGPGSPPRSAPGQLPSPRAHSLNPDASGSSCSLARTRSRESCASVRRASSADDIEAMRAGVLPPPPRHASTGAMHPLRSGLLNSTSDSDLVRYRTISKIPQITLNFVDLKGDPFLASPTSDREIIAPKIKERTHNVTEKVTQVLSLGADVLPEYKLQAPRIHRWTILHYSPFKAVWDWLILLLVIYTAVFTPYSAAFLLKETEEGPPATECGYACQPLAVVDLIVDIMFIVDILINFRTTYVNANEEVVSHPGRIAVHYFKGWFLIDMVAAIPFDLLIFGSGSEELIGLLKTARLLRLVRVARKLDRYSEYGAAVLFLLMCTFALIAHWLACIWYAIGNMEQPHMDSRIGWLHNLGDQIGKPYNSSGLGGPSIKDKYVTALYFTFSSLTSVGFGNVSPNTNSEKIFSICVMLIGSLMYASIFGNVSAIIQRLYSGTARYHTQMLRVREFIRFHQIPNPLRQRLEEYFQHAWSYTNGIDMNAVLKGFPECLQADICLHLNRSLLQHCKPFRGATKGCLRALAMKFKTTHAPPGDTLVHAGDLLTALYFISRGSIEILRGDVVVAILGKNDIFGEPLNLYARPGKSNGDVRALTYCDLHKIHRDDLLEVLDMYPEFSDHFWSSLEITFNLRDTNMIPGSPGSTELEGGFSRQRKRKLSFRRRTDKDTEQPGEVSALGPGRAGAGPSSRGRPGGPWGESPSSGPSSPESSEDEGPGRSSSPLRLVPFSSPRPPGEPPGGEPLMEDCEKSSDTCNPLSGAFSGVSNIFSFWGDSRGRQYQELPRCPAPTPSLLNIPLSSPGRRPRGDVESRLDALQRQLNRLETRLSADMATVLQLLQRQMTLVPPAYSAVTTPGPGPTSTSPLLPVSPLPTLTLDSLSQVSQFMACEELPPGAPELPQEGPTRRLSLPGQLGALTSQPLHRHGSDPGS
Consider `CC/C(=N\NC(=O)CCC(=O)NCc1ccccc1)c1ccc(O)cc1`, for which the “hERG current change (%, negative = inhibition) at 1uM” value is listed as 16%.
In the case of `CC(C)CC1Nc2ccc(C(=O)NCCCN3CCOCC3)cc2NC1=O` (stereo not shown), the “hERG current change (%, negative = inhibition) at 1uM” value is 14.6%.
Regarding `O=C(CN1C(=O)C2C3CC(C(Br)C3Br)C2C1=O)Nc1ccc(C(=O)O)cc1` (stereo not shown), the “hERG current change (%, negative = inhibition) at 1uM” value amounted to 17.8%.
With `COc1cccc(N(CC(=O)NCCSc2ccccn2)S(C)(=O)=O)c1`, the “hERG current change (%, negative = inhibition) at 1uM” value amounted to 5.32%.
For the compound `CC1=C(C(=O)OCC2CCCO2)C(c2ccc(C)o2)C2=C(CC(c3ccc(F)cc3)CC2=O)N1` (stereo not shown), the “hERG current change (%, negative = inhibition) at 1uM” value was determined as 2.55%.
In the case of `CCC(=O)Nc1ccc(/C(C)=N\NS(=O)(=O)c2ccc(C)cc2)cc1` it was 3.85%; in that of `COc1ccc(/C=C2\SC(=S)N(CCC(=O)NCCCN3CCOCC3)C2=O)cc1.Cl`, 9.51%; in that of `O=C(c1cccc2ccccc12)C1CCCN(C(=O)CCc2cnccn2)C1` (stereo not shown), 7.64%.
Consider `CCOc1cc(/C=C2/NC(=O)N(CC(=O)Nc3cccc(C)c3)C2=O)ccc1OCC(N)=O`, for which the “hERG current change (%, negative = inhibition) at 1uM” value is given as 11.1%.
As for `Cn1c(SCC(=O)c2ccc(F)cc2)nnc1-c1cnccn1`, the “hERG current change (%, negative = inhibition) at 1uM” value is 7.49%.
Regarding `O=C(c1ccc(Sc2ccccc2)c([N+](=O)[O-])c1)N1CCOCC1`, the “hERG current change (%, negative = inhibition) at 1uM” value is given as 13.7%.
As to `COc1ccc(S(=O)(=O)N2CCCCC2)cc1C(=O)Nc1cc(C)on1`, the “hERG current change (%, negative = inhibition) at 1uM” value is on record as -2.46%.
The value for `Cc1ccc(S(=O)(=O)N2CCOCC2)cc1NS(=O)(=O)c1ccc(F)c(F)c1` was -0.313%.
`O=C(O)CCC(=O)N1CCN(c2ccc(C(=O)c3ccc(F)cc3)cc2)CC1`: the “hERG current change (%, negative = inhibition) at 1uM” value is reported as -1.21%.
As to `O=C(c1ccc(NS(=O)(=O)c2ccc(F)cc2)cc1)N1CCCCCC1`, the “hERG current change (%, negative = inhibition) at 1uM” value is recorded as 16.4%.
Turning to `COC(=O)CCCC[C@@H]1SC[C@@H](NC(=O)OC)[C@@H]1NC(=O)OC`, the “hERG current change (%, negative = inhibition) at 1uM” value was found to be 9.11%.
Turning to `Cc1cc(C)c(OCCCCCn2ccnc2)c(C)c1`, the “hERG current change (%, negative = inhibition) at 1uM” value was 9.7%.
Take `CCc1ccc(-n2c(=S)sc3c(=O)n(-c4ccccc4C)c(SCC(=O)O)nc32)cc1`: the “hERG current change (%, negative = inhibition) at 1uM” value turned out to be 12.2%.
`CN(C)/C=C/C(=O)c1ncc(C(F)(F)F)cc1Cl`: the “hERG current change (%, negative = inhibition) at 1uM” value was determined as 13.5%.
Take `CC(C)CNS(=O)(=O)c1ccc(OCC(=O)Nc2ccc3c(c2)OCCO3)cc1`: the “hERG current change (%, negative = inhibition) at 1uM” value turned out to be 14.4%.
In the case of `CC(O)C(NS(=O)(=O)c1ccc(Cl)cc1)C(=O)OCC(=O)N1CCN(c2ccccc2)CC1` (stereo not shown) it was 6.01%; in that of `CC(CC(=O)O)CC(=O)Nc1nncs1` (stereo not shown), 4.53%; in that of `COC(=O)c1ccc(C(C(=O)NC2CCCCC2)N(CCN2CCOCC2)C(=O)Cc2cccs2)cc1` (stereo not shown), 0.602%.
Consider `CCn1c2ccccc2c2cc(CN3CCN(S(=O)(=O)Cc4ccccc4)CC3)ccc21.O=C(O)C(=O)O`, for which the “hERG current change (%, negative = inhibition) at 1uM” value was 21.5%.
For the compound `CCc1cccc(C)c1NC(=S)N(CCCN1CCOCC1)Cc1cccnc1`, the “hERG current change (%, negative = inhibition) at 1uM” value turned out to be 6.27%.
For `Cc1ccc(OCC(=O)N2CCN(c3nnc(-c4ccccc4)c4ccccc34)CC2)cc1`, the “hERG current change (%, negative = inhibition) at 1uM” value is reported as -2.45%.
In the case of `Cc1cc(OCC(=O)OCC(=O)Nc2ccc(Cl)cn2)ccc1Cl`, the “hERG current change (%, negative = inhibition) at 1uM” value is recorded as 6.23%.
The value for `O=[N+]([O-])c1cccc(S(=O)(=O)N2CCCCC2)c1` was 7.36%.
As for `CS(=O)(=O)O.c1cnc(N2CCN(Cc3ccc4c(c3)OCO4)CC2)nc1`, the “hERG current change (%, negative = inhibition) at 1uM” value was 16.5%.
Regarding `COC(=O)c1cc(Cl)c(NC(=O)/C=C/c2ccc(OC)cc2)cc1OC`, the “hERG current change (%, negative = inhibition) at 1uM” value stood at 6.05%.
The value for `O=C(CSc1nnc(NC(=O)c2cccc(F)c2)s1)NCc1ccco1` was 12.5%.
For `O=C(c1ccco1)N1CCN(C(=O)c2cccc3c2C(=O)N(C2CCCCC2)C3)CC1`, the “hERG current change (%, negative = inhibition) at 1uM” value was found to be 2.48%.
In the case of `O=C(Cc1ccccc1)NCC(=O)N/N=C/c1cccs1` it was 14.6%; in that of `Cl.c1ccc2c(c1)oc1c(Nc3ccc4c(c3)OCCO4)ncnc12`, 6.16%; in that of `CCc1cc(C(=O)NNC(=S)Nc2ccccc2C)cs1`, -2.24%.
In the case of `Cc1ccc(C(=O)N/N=C/c2ccc3c(c2)OCO3)o1` it was 10.3%; in that of `Cc1ccc(NC(=S)NC(=O)/C=C/c2ccc(Cl)cc2)cc1`, 13.1%; in that of `CC(C)C(=O)NC(=S)Nc1ccccn1`, 8.48%.
Regarding `CN(C)N(C)C(=O)C(O)(c1ccccc1)c1ccccc1`, the “hERG current change (%, negative = inhibition) at 1uM” value is reported as 5.43%.
On to `COc1ccc(S(=O)(=O)Nc2ccccc2C(=O)N2CCOCC2)cc1OC`, for which the “hERG current change (%, negative = inhibition) at 1uM” value turned out to be 7.85%.
In the case of `CCOc1ccc(Br)cc1S(=O)(=O)NC(=O)c1ccccc1` it was 12.9%; in that of `Cc1cc(C)c[n+](CC(=O)c2ccc(NC(=O)c3ccccc3)cc2)c1.[Br-]`, 11.5%.
With `Cc1ccc(CSCCNS(C)(=O)=O)cc1`, the “hERG current change (%, negative = inhibition) at 1uM” value was 10.9%.
For the compound `COc1ccc(OC)c(/C=N/NC(=O)c2c(C)nc3ccc(C)cn23)c1`, the “hERG current change (%, negative = inhibition) at 1uM” value came out at 11.6%.
The value for `CC(C)c1ccc(Nc2ncccc2C#N)cc1` was 6.51%; that for `O=C(NCC(=O)N1CCN(c2ncccn2)CC1)c1cccs1` was 3.14%; that for `COc1ccc2c(c1)O[C@H](c1ccc3c(c1)OCO3)[C@@H](OC(=O)N[C@H]1CCCc3ccccc31)C2=O` was 10.1%.
For `Nc1ncnc(Nc2cc(Cl)cc(Cl)c2)c1[N+](=O)[O-]`, the “hERG current change (%, negative = inhibition) at 1uM” value is 8.04%.
On to `CC1(C)Cc2cccc(OCC(N)=O)c2O1`, for which the “hERG current change (%, negative = inhibition) at 1uM” value is given as 14.5%.
In the case of `COc1ccc(CN2CCc3ccc(NC(=O)c4ccncc4)cc3C2)c(F)c1`, the “hERG current change (%, negative = inhibition) at 1uM” value was 0.723%.
For the compound `CCOc1cc2c(cc1OCC)-n1cccc1C(c1ccc(OC)c(OC)c1)NC2.Cl` (stereo not shown), the “hERG current change (%, negative = inhibition) at 1uM” value is reported as -4.92%.
The value for `CCc1ccc(NC(=O)N2CCc3ccccc3C2)cc1` was 14.8%.
As to `C=CCN1C(=O)/C(=C/C(=O)OC)S/C1=N\NC(=O)c1ccccc1`, the “hERG current change (%, negative = inhibition) at 1uM” value came out at 9.74%.
In the case of `CCc1n[nH]c(=S)n1/N=C/c1cccc2ccccc12`, the “hERG current change (%, negative = inhibition) at 1uM” value is 20.4%.
For `O=C(Nc1nnc(SCc2ccc(F)cc2)s1)c1cnccn1`, the “hERG current change (%, negative = inhibition) at 1uM” value is on record as -0.173%.
